Results published in paper PMC5496739.
Residue numbers refer to the chain shown, from its start. Results are given in words; binding and its absence hold for the method and conditions named. In cells and extracts the contact can be indirect. Some binding calls cover weakened binding; strength is not graded here. One block for each binder: values may come before it.

How the values were obtained:
[1] = target: T1, MEF-exophilin-8 (wild type) (mouse) (UniProt Q8K3I4); test: co-IP; MIN6 cells infected with adenovirus encoding MEF-tagged exophilin-8 or control GFP; anti-FLAG immunoprecipitates blotted with anti-RIM-BP2
T1 sequence: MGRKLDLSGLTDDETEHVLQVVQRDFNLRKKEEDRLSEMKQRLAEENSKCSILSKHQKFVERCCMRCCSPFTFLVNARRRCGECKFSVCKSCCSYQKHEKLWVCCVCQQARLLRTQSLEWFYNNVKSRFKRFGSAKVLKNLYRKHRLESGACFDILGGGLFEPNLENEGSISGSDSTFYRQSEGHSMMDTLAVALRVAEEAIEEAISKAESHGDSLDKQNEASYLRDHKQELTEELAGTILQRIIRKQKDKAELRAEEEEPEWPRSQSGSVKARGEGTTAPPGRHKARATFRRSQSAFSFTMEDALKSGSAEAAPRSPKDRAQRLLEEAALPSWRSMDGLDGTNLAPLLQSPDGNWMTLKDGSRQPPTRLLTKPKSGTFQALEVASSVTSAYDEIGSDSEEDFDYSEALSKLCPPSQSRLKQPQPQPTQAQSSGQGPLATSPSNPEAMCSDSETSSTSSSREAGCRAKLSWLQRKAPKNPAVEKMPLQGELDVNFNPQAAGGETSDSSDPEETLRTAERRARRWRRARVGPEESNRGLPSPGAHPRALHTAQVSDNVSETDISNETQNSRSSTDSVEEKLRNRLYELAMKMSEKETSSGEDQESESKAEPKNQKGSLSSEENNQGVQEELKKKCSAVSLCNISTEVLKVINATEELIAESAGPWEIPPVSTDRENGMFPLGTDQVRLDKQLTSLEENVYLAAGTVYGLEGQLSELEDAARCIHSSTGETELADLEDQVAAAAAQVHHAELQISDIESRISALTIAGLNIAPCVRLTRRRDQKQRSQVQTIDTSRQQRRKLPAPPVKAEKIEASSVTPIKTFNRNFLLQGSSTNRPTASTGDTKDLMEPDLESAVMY

[2] = target: T2, MEF-exophilin-8 PA (ABD) mutant (mouse) (UniProt Q8K3I4); test: as above
T2 sequence: T1 sequence with R798A, P801A, P804A

[3] = target: T3, exophilin-8 (wild type) expressed in HEK293A cells (mouse) (UniProt Q8K3I4); test: co-IP; HEK293A cells transfected with plasmids for RIM-BP2, exophilin-8 and their deletion or point mutants; immunoprecipitates with anti-FLAG or anti-HA antibodies blotted with anti-FLAG, anti-GFP and anti-HA
T3 sequence: T1 sequence

[4] = target: T4, exophilin-8 PA (ABD) mutant expressed in HEK293A cells (mouse) (UniProt Q8K3I4); test: as above
T4 sequence: T1 sequence with R798A, P801A, P804A

[5] = target: T5, exophilin-8 PA (MBD) mutant expressed in HEK293A cells (mouse) (UniProt Q8K3I4); test: as above
T5 sequence: T1 sequence with R474A, P477A, P480A

- binding [1]: binds
- binding [2]: no binding
B1: RIM-BP2, endogenous in MIN6 cells (protein, UniProt Q80U40 1-1072)
chain: MREAAERRQQLELEHEQALAFLNAKQQEIQLLQQAQVEAKKEHEGAVQLLESKVRELEEKCRVQSEQFNLLSRDLEKFRQHTGSIDLLGSSSVALLDVPLAPGKPFPQYMNGLATSIHKGHEGPTGHYSVIGDYIPLSGDKLESPCVKPSFLLRSSSPRCRFESEMDNDRNSNNSKQSSSGKVHLCVARYSYNPFDGPNENPEAELPLTAGKYLYVYGDMDEDGFYEGELLDGQRGLVPSNFVDFIQDNESRLAGTLGSEQDQNFLNHSGISLERDSILHLHSPTQVDSGITDNGGGTLDVNIDDIGEDTVPYPRKITLIKQLAKSVIVGWEPPAVPPGWGTVSSYNVLVDKETRMSLALGRRTKALIEKLNTAACTYRISVQCVTSRGNSDELQCTLLVGKDVVVAPSQLRVDNITQISAQLSWLPTNSNYSHIIFLNEEELDIVKAARYKYQFFNLRPNMAYKVKVLAQPHQMPWQLPLEQREKKEACVEFSTLPAGPPAPPQDVTVHAGATAASVQVSWKPPALTPTGLSNGANVTGYGVYAKGQRVAEVIAPTADGTAVELIRLRSLEAKAVSVRTLSVQGESMDSALAAIPPDLLVPPAPHPRTAPPPKPLASDMDTKDQHLGPHVKVDESWEQSRSPGPAHGHMLEPPDMHSAGPGRRSPSPSRILPQPQGAPVSTTVAKAMAREAAQRVAESNRLEKRSLFLEQSSAGQYTNSDEEDGYASPEVKRRGTSVDDFLKGSELGKQPHCCHGDEYHTESSRGSDLSDIMEEDEEELYSEMQLEDGGRRRPSGTSHNALKILGNSTLMGRADRMEHVSRRYSHSGGGSHRHRPAMAPSIDEYTGRDHLSPDFYDESETDPGAEELPARIFVALFDYDPLTMSPNPDAAEEELPFKEGQIIKVYGDKDADGFYRGETCARLGLIPCNMVSEIHADDEEMMDQLLRQGFLPLNTPVEKIERSRRSGRGHSVPTRRMVALYDYDPRESSPNVDVEAELPFCTGDIITVFGEIDEDGFYYGELNGQKGLVPSNFLEEVPDDVEVHLSDAPPHYSHDPPMRSKAKRKKSVHFTP

- binding [3]: binds
- binding [4]: no binding
- binding [5]: binds
B2: RIM-BP2 expressed in HEK293A cells (co-immunoprecipitations of Figure 4C,D) (protein, UniProt Q80U40 1-1072)
chain: B1 chain
